In PMC4896931, “The discovery of 2-substituted phenol quinazolines as potent RET kinase inhibitors with improved KDR selectivity” (European Journal of Medicinal Chemistry, 2016):

target: T1, RET (Homo sapiens, UniProt P07949); assay: RET biochemical assay (CisBio HTRF kinEASE); conditions: ATP at Km, geometric mean of four independent determinations, standard deviation in parentheses
T1 construct: purchased Carna Biosciences 08-159

`COc1cc2ncnc(Nc3cccc(O)c3C#N)c2cc1OC` [Compound 18, 2-((6,7-Dimethoxyquinazolin-4-yl)amino)-6-hydroxybenzonitrile] was tested. Which IC50 did it give?
Its IC50 is greater than 10000 nM.

target: BaF3 cells expressing KDR (Homo sapiens, UniProt P35968); assay: BaF3 cellular assay, KDR-driven line (CellTiter-Glo viability); format: cell-based; conditions: 48 h, geometric mean of at least four determinations, standard deviation in parentheses

Which IC50 does the source give for `COc1cc2ncnc(Nc3ccc(Br)cc3F)c2cc1OC` [Compound 4] here?
The IC50 was 2900 nM.

With `COc1cc2ncnc(Nc3cccc(O)c3F)c2cc1OC` [Compound 14, 3-((6,7-Dimethoxyquinazolin-4-yl)amino)-2-fluorophenol] as the compound, how does the IC50 read?
The IC50 was 1300 nM.

For `COc1cc2ncnc(Nc3ccc(C)c(O)c3)c2cc1OC` [Compound 20], which IC50 is on record?
Its IC50 is 88 nM.

`COc1cc2ncnc(Nc3ccc(Cl)c(O)c3)c2cc1OC` [Compound 21] was tested. Which IC50 did it give?
The IC50 was 110 nM.

With `COc1cc2ncnc(Nc3cc(O)ccc3F)c2cc1OC` [Compound 25] as the compound, how does the IC50 read?
Its IC50 is 98 nM.

With `COc1cc2ncnc(Nc3cc(O)ccc3Cl)c2cc1OC` [Compound 26, 4-Chloro-3-((6,7-dimethoxyquinazolin-4-yl)amino)phenol] as the compound, how does the IC50 read?
Its IC50 is 240 nM.

For `COc1cc2ncnc(Nc3cc(O)c(F)cc3F)c2cc1OC` [Compound 28], which IC50 is on record?
The IC50 was 66 nM.

How did the IC50 turn out when `COc1cc2ncnc(Nc3cc(O)c(C)cc3F)c2cc1OC` [Compound 30] was run?
Its IC50 is 9.5 nM.

For `COc1cc2ncnc(Nc3c(Cl)ccc(O)c3C)c2cc1OC` [Compound 37, 4-Chloro-3-((6,7-dimethoxyquinazolin-4-yl)amino)-2-methylphenol], which IC50 is on record?
The IC50 was greater than 10000 nM.

For `COc1cc2ncnc(Nc3c(Cl)ccc(O)c3Cl)c2cc1OC` [Compound 39, 2,4-Dichloro-3-((6,7-dimethoxyquinazolin-4-yl)amino)phenol], which IC50 is on record?
Its IC50 is greater than 10000 nM.

With `COc1cc2ncnc(Nc3c(F)ccc(O)c3Cl)c2cc1OC` [Compound 40, 2-Chloro-3-((6,7-dimethoxyquinazolin-4-yl)amino)-4-fluorophenol] as the compound, how does the IC50 read?
Its IC50 is 5400 nM.

How did the IC50 turn out when `COc1cc2ncnc(Oc3cccc(O)c3)c2cc1OC` [Compound 42, 3-((6,7-Dimethoxyquinazolin-4-yl)oxy)phenol] was run?
Its IC50 is 840 nM.
